# The whole screen tested about 52,000 compounds, of which about 1,700 (3.3%) were called active. Cut-off read from the data, not from the text of the source: active = survival mostly below about 52% (no sharp cut-off); inactive = mostly above about 56%. Some of the results follow.
# Test system: Wild type
# Test: S. aureus survival, RN4220 and DeltatarO strains – OD600, teichoic acid synthesis inhibitors, primary screen (AID 463173)
# Conditions: S. aureus RN4220 wild type/DeltatarO growth, OD600, 18 h, stronger effect = lower value, screened at 18.75 µg/mL (by protocol)
row,Structure (SMILES),survival
1,CCC(C)NC(=O)CSc1nc2n[nH]c(C)c2c(=N)n1-c1cc(Cl)ccc1C (configuration not stated),inactive: 72%
2,COc1ccccc1NC(=O)c1sc2nc(C)c(C(=O)Nc3ccc(C)cc3C)c(-c3ccco3)c2c1N,inactive: 73%
3,CC(C)c1ccc(NC(=O)c2ccc(F)c(S(=O)(=O)N3CCc4ccccc43)c2)cc1,inactive: 59%
4,COc1ccccc1CNC(=O)c1cc2sccc2n1Cc1ccc(Cl)cc1,inactive: 91%
5,COc1cccc(-c2noc(C3CC(=O)N(c4ccc(F)cc4)C3)n2)c1OC (configuration not stated),inactive: 81%
6,Cc1ccc(NC(=O)c2ccc3[nH]c(C)cc(=O)c3c2)cc1,inactive: 94%
7,CSc1cccc(NC(=O)c2cccc(N3CCCS3(=O)=O)c2)c1,inactive: 115%
8,CCc1ccc(NC(=O)CCn2c(=O)c3cccn3c3ccccc32)cc1,inactive: 73%
9,COc1ccc(NC(=O)CSc2ccc3nc(-c4ccccc4)cn3n2)c(OC)c1,inactive: 84%
10,Cc1ccccc1NC(=O)CSc1nc2ccc(NC(=O)c3cccs3)cc2s1,inactive: 98%
11,Cc1ccc(-n2nnnc2CNC(=O)c2cc(C(F)(F)F)cc(C(F)(F)F)c2)cc1C,active: -3%
12,CCN(CC)C(=O)c1cc2sccc2n1Cc1ccc(F)cc1,inactive: 132%
13,COc1cccc(CNC(=O)COc2cc(=O)n(C)c3ccccc23)c1,inactive: 66%
14,Cc1ccc(N2CCN(S(=O)(=O)c3cccc4ccccc34)CC2)cc1Cl,inactive: 126%
15,COc1cc(C2C(C(=O)c3ccco3)=C(O)C(=O)N2CCc2ccccc2)ccc1O (configuration not stated),inactive: 96%
16,COc1ccccc1S(=O)(=O)Cc1ccc(C(=O)NCc2ccc(Cl)cc2)o1,inactive: 75%
17,COc1ccc(S(=O)(=O)Nc2ccc(-c3cn4c(C)csc4n3)cc2)cc1,inactive: 78%
18,COc1ccc(-n2ncc3c(NC4CCCC4)ncnc32)cc1,inactive: 129%
19,O=C(Nc1cccc(C(F)(F)F)c1)c1cc(CN2CCOCC2)on1,inactive: 129%

row,Structure (SMILES),survival
1,COc1ccc(-c2csc(N)n2)cc1C,inactive: 117%
2,O=C(Nc1ccccc1F)c1ccc2c(Cl)c3c(nc2c1)CCC3,inactive: 34%
3,CCCNc1ccc(-c2nc(-c3ccccn3)no2)cc1[N+](=O)[O-],inactive: 122%
4,CCCCNC(=O)c1ccc2c(c1)ncn2-c1cc(OC)ccc1OC,inactive: 118%
5,Cc1c(Cl)cccc1-n1ncc(C(=O)Nc2ccc(Br)cc2F)c1C1CCNCC1,inactive: 79%
6,CCCn1c(SCC(=O)N(C2CCCCC2)C2CCCCC2)nc2c1c(=O)n(C)c(=O)n2C,inactive: 102%
7,CCOc1ccc2nc(SCC(=O)O)c(C)cc2c1,inactive: 116%
8,CCN(CCCNC(=O)c1nn(-c2ccc(OC)cc2)c(=O)c2c1c1ccccc1n2C)c1ccccc1,inactive: 82%
9,CCOc1ccccc1CNCc1cccn1-c1nnc(N2CCN(c3ccccc3)CC2)s1,inactive: 60%
10,COc1ccccc1NC(=O)C1=C(C)Nc2nnnn2C1c1ccc(C(F)(F)F)cc1 (configuration not stated),inactive: 85%
11,CCc1cccc(NC(=O)CCNS(=O)(=O)c2cccc3nonc23)c1,inactive: 106%
12,COC(=O)c1ccc(NC(=O)c2nc(-c3ccc(Cl)cc3)n3c2CCCCC3)cc1,inactive: 80%
13,CCOC(=O)Cn1cnc2sc(C(=O)OCC)c(C)c2c1=O,inactive: 101%
14,CC(=O)c1ccc(NC(=O)c2cc(-c3ccc(C)s3)nc3ccccc23)cc1,inactive: 91%
15,CCC(C)NC(=O)Cn1c(=O)n(CCCCCC(=O)NCc2ccccc2Cl)c(=O)c2sccc21 (configuration not stated),inactive: 128%
16,O=C(NCc1cccc(Br)c1)c1cnn(-c2ccc(F)cc2)c1-n1cccc1,inactive: 70%
17,CC(C)(C)CC(=O)NCC(c1ccc2c(c1)OCO2)N1CCN(c2ccccc2)CC1 (configuration not stated),inactive: 68%
18,O=C1C(c2ccc(F)cc2)N(CCc2ccc(Cl)cc2)C(=O)CN1C1CCCCCC1 (configuration not stated),inactive: 63%
19,CCOC(=O)N1CCc2c(sc3c2c(=O)n(CCc2ccccc2)c(=O)n3CC(=O)Nc2ccc(C)cc2)C1,inactive: 89%

row,Structure (SMILES),survival
1,O=C(CSc1nccn1-c1ccc(Cl)cc1)Nc1ccc(Cl)c(Cl)c1,inactive: 73%
2,COc1cc(NC(=O)N2c3ccccc3Sc3ccccc32)cc(OC)c1,inactive: 65%
3,COc1ccccc1C(=O)NCC(c1cccnc1)N1CCc2ccccc2C1 (configuration not stated),inactive: 84%
4,O=C(CC(c1ccccc1)c1ccccc1)N1CCN(Cc2ccc3c(c2)OCO3)CC1,inactive: 105%
5,CCCOC(=O)c1c(NC(=O)C(C)Sc2nc(-c3ccccc3)cc(C(F)(F)F)n2)sc(C(=O)N(C)C)c1C (configuration not stated),inactive: 93%
6,CN1CCc2c(sc(NC(=O)CSc3ccccc3)c2-c2nc3ccccc3s2)C1,inactive: 80%
7,Cc1cccc(N2CCN(C(=O)CN3C(=O)CSc4c3c(C)nn4-c3ccccc3)CC2)c1C,inactive: 68%
8,COc1cc(NC(=O)CCc2c(C)nn(-c3ccc4nnc(C)n4n3)c2C)cc(OC)c1OC,inactive: 87%
9,CCc1ccc(NC(=O)[C@H](Cc2ccccc2)N2Cc3ccccc3C2=O)cc1,inactive: 87%
10,CN(C)CCNC(=O)C1CCN(Cc2cc3ccccc3n2Cc2ccccc2)CC1,inactive: 78%
11,CCOc1ccc(S(=O)(=O)c2c(C(=O)c3ccc(CC)cc3)cnc3ccc(C)cc23)cc1,inactive: 87%
12,CCOc1ccc(N2CC(NC(=O)c3cccs3)CC2=O)cc1 (configuration not stated),inactive: 88%
13,CCCN(CCC)CCCNC(=O)c1cc2c(-c3ccc(OC)c(OC)c3)nn(C)c2s1,inactive: 125%
14,COc1ccc(C2C(=O)N(C3CCCCCC3)CC(=O)N2Cc2ccc(C)cc2)cc1 (configuration not stated),inactive: 75%
15,O=C1CC(c2nc(-c3ccc(Cl)cc3)no2)CN1c1ccc2c(c1)OCCO2 (configuration not stated),inactive: 82%
16,O=C(CSc1nc2c([nH]c3ccccc32)c(=O)n1-c1ccccc1)N1CCc2ccccc21,inactive: 73%
17,Cc1ccc(S(=O)(=O)n2nc(-c3ccccc3)nc2NCc2ccc(Cl)cc2)cc1,inactive: 87%
18,S=c1[nH]nc(CCCOc2ccc(Cl)cc2Cl)o1,inactive: 95%
19,CSc1ccc(CCNC(=O)CCn2c(=O)c3cccn3c3ccc(F)cc32)cc1,inactive: 84%

# From PubChem BioAssay AID463173 (ICCB-Longwood Screening Facility, Harvard Medical School, 2010)
